Test results from PubChem BioAssay AID2147 (National Center for Advancing Translational Sciences (NCATS), 2009).
Out of some 230,000 compounds screened, about 3,600 (1.6%) were called active. The inconclusive results got no clear call from the source; some entries with a clear call stand among them for comparison. The call rests on the fitted dose curve; in most records, active means well fitted inhibition curve with a large enough effect (not every such curve was filed as active); inconclusive means small, poorly fitted or top-dose-only effect, or another doubt; inactive means no such curve, though single readings can be large or run the other way. A potency beside an inconclusive call is a rough fit, not a confirmed value.

The compounds below were run against Lysine-specific demethylase 4E (Homo sapiens) (UniProt B2RXH2) (assay: qHTS Assay for Inhibitors of Human Jumonji Domain Containing 2E (JMJD2E)). Details: JMJD2E catalytic domain, FDH-coupled NADH fluorescence (FDH is formaldehyde dehydrogenase); series mostly up to 57.1 µM.
Sequence of UniProt B2RXH2 (B2RXH2 whole entry, looked up, the tested form may be a part): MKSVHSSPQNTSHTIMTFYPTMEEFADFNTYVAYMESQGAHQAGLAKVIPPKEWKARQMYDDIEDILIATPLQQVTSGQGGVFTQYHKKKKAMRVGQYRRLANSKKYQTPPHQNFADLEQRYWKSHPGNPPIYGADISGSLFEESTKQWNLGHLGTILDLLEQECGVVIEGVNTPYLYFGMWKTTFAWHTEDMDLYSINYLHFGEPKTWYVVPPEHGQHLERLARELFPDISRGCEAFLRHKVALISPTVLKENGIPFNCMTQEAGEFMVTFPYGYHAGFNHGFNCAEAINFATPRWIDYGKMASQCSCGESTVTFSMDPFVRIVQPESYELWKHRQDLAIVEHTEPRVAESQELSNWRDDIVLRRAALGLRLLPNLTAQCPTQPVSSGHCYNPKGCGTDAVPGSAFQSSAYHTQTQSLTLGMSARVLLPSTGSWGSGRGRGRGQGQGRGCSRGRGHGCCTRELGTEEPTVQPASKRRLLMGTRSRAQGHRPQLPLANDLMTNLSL
Further: nearly all actives have a fitted effect of over 50% in size.
Potency means the concentration at half of the fitted maximal effect; tags describe the fitted curve by direction and shape.

SMILES | Potency
O=C(N/N=C1\C/C(=N\NC(=O)c2ccncc2)c2ccccc21)c1ccncc1 | inconclusive: 3.16 µM [inhibitor, full curve]
Cn1c(O)c(C2=c3ccccc3=NC2=O)[nH]c1=S | inactive
Cc1c(C(=O)O)cccc1-n1c(C)cc(/C=N/NC(=O)c2cc3ccccc3o2)c1C | inconclusive: 39.8 µM [inhibitor, single point]
COc1cccc(/C=N/NC(=O)CNC(=O)c2ccc(S(=O)(=O)N3CCOCC3)cc2)c1OC | inconclusive: 12.6 µM [inhibitor, partial curve]
NC(=O)c1ccccc1NC(=O)/C=C/c1ccccc1 | inconclusive: 35.5 µM [inhibitor, single point]
CNc1c(N)n(Cc2ccccc2)c(=O)[nH]c1=O | inconclusive: 39.8 µM [inhibitor, single point]
CCCn1nc(NC(=O)c2cccs2)c2cc3ccccc3nc21 | inconclusive: 25.1 µM [inhibitor, partial curve]
CCOC(=O)C(C)Sc1ncnc2nc[nH]c12 (stereo unspecified) | inconclusive: 35.5 µM [inhibitor, single point]
COc1cc(NC(=O)CSc2nc3[nH]ncc3c(=O)n2-c2ccccc2C)cc(OC)c1OC | inactive
O=c1cc(CSc2nc3ccccc3c(=O)[nH]2)c2ccc(O)cc2o1 | inconclusive: 25.1 µM [inhibitor, single point]
CCOC(=O)C1CCN(c2c(NCc3ccc(C(=O)NCCOC)cc3)c(=O)c2=O)CC1 | inactive
CCOc1ccc2nc(NC(=O)CS(=O)(=O)c3ccc(C)cc3)sc2c1 | inactive
Cc1ccc2oc(-c3cccc(NC(=O)C4CCCO4)c3)nc2c1 (stereo unspecified) | inconclusive: 28.2 µM [inhibitor, partial curve]
CC(=O)Nc1scc(C)c1-c1nc2ccccc2s1 | inactive
Cn1c(NN)nc2ccccc2c1=O | inconclusive: 25.1 µM [inhibitor, partial curve]
Nc1cccc2c1C(=O)N(C(=O)/C=C/c1ccc(F)cc1)C2=O | inconclusive: 25.1 µM [inhibitor, single point]
CCOC(=O)CSc1nc2ccc(N3CCOCC3)cc2c(=O)n1Cc1ccccc1 | inconclusive: 31.6 µM [inhibitor, partial curve]
CC1(O)N(CCC(=O)Nc2cccc(F)c2)C(=O)OC12CCCCC2 (stereo unspecified) | inconclusive: 35.5 µM [inhibitor, single point]
Cc1onc(-c2ccccc2)c1C(=O)NC(=S)Nc1sc2c(c1C#N)CCC(C)C2 (stereo unspecified) | inactive
O=C(CN1c2ccccc2Sc2ccccc21)NNC(=S)Nc1ccc(Cl)cc1 | inconclusive: 35.5 µM [inhibitor, single point]
N#C/C(=C\c1ccc(OC(=O)c2cccs2)cc1)c1nc2ccccc2[nH]1 | inactive
CC(C)(C)N1CC(c2nc3ccccc3n2Cc2ccc(Cl)cc2)CC1=O (stereo unspecified) | inconclusive: 25.1 µM [inhibitor, single point]
CSc1nc(C2CC2)cc(-c2cccs2)c1C#N | inconclusive: 39.8 µM [inhibitor, single point]
Cc1ccc(S(=O)(=O)NC(C(=O)O)c2ccccc2)cc1 (stereo unspecified) | inconclusive: 39.8 µM [inhibitor, single point]

SMILES | Potency
CCCC(=O)Nc1c(-c2ccccc2OC)c(=O)c2ccccc2n1C | inconclusive: 28.2 µM [inhibitor, partial curve]
CCSc1nc2ccccc2[nH]1 | inactive
Cc1nn(C)cc1C1C2=C(CC(C)(C)CC2=O)N(c2ccccc2)C2=C1C(=O)CC(C)(C)C2 | inconclusive: 31.6 µM [inhibitor, partial curve]
COc1ccc(NC(=O)CCl)cn1 | inconclusive: 31.6 µM [inhibitor, partial curve]
C=CCSC(=C(C#N)C#N)c1cc2c([nH]1)CCCC2 | inactive
Fc1ccc(-c2ccnc(=S)[nH]2)cc1 | inactive
CO/N=C/C=C1/N(C)c2ccccc2C1(C)C | inactive
CSCCC1Nc2ccc(S(=O)(=O)N3CCOCC3)cc2NC1=O (stereo unspecified) | inconclusive: 35.5 µM [inhibitor, single point]
Cc1cccc(S(=O)(=O)c2c(N)n(/N=C/c3ccco3)c3nc4ccccc4nc23)c1 | inconclusive: 28.2 µM [inhibitor, partial curve]
CCCCCCc1cc2cc(S(=O)(=O)c3ccc(F)c(Cl)c3)c(=O)oc2cc1O | inconclusive: 17.8 µM [inhibitor, partial curve]
O=C1c2ccccc2NC(c2ccc(Cl)cc2Cl)N1O (stereo unspecified) | inconclusive: 28.2 µM [inhibitor, single point]
Oc1c(C(Nc2nc3ccccc3s2)c2ccco2)ccc2cccnc12 (stereo unspecified) | inconclusive: 31.6 µM [inhibitor, single point]
O=C1c2cccc3cccc(c23)C(=O)N1c1ccc2ncccc2c1 | inactive
Cc1[nH]c2ccccc2c1CN1CCN(c2ccccn2)CC1 | inactive
CC(=O)N=c1c(C#N)cc2c(=O)n3cccc(C)c3nc2n1CCCOC(C)C | inconclusive: 12.6 µM [inhibitor, partial curve]
C=CCn1c(SCC(=O)Nc2cccc(C)c2)nnc1-c1cnccn1 | inconclusive: 39.8 µM [inhibitor, single point]
Cc1cc(C)n(CCN(C)C(=O)CCc2nnc(-c3ccc4c(c3)OCO4)o2)n1 | inconclusive: 31.6 µM [inhibitor, partial curve]
O=C1c2ccsc2SCCN1Cc1ccccc1 | inactive
CCN(CC)CCN1C(=O)C(O)=C(C(=O)c2cc3cccc(OC)c3o2)C1c1ccc(F)cc1 (stereo unspecified) | inactive
CCN(CC)c1ccc(C(=O)OCc2cc(=O)oc3cc(O)ccc23)cc1 | inconclusive: 1.41 µM [inhibitor, full curve]
C/C(=N/n1cnnc1)c1cccnc1 | inactive
CC(C)(C)C(=O)Nc1cccc(OC(F)(F)C(F)Cl)c1 (stereo unspecified) | inactive
CC(C(=O)N(C)Cc1ccccc1)N1CCN(C/C=C/c2ccccc2)CC1 (stereo unspecified) | inconclusive: 22.4 µM [inhibitor, single point]
CC(=O)OCCNc1cc(SCc2ccco2)c2nonc2c1[N+](=O)[O-] | inconclusive: 12.6 µM [inhibitor, partial curve]

SMILES | Potency
O=C(Cc1n[nH]c(=O)c2ccccc12)NCc1ccccc1 | inconclusive: 39.8 µM [inhibitor, single point]
COc1ccc(OCC(=O)N/N=C(\C)c2cc3ccccc3o2)cc1 | inconclusive: 35.5 µM [inhibitor, single point]
COc1ccc(C(=O)C2CCCN(C(=O)c3cc(C)nc(C)n3)C2)cc1OC (stereo unspecified) | inconclusive: 39.8 µM [inhibitor, single point]
O=C(COC(=O)c1ccncc1)NC(=O)C1CCCCC1 | inconclusive: 39.8 µM [inhibitor, single point]
Cc1cc(-c2cc(C(=O)NC3CCCC3)on2)nc(NC2CCCC2)n1 | inconclusive: 35.5 µM [inhibitor, single point]
NC(=O)c1ccccc1N/C=C/C(=O)c1cccs1 | inconclusive: 35.5 µM [inhibitor, partial curve]
O=C(CSc1nc2ccccc2n1CCc1ccccc1)c1ccc(O)c(O)c1 | active: 22.4 µM
Cc1ccc(S(=O)(=O)NN2C(=O)c3ccccc3NC2c2ccco2)cc1 (stereo unspecified) | inconclusive: 20 µM [inhibitor, partial curve]
CCc1ccc2oc(-c3ccc(N)cc3)nc2c1 | inconclusive: 31.6 µM [inhibitor, partial curve]
CC(CCc1ccccc1)NC(=O)C1CCN(C(=O)c2sccc2-n2cccc2)CC1 (stereo unspecified) | inactive
O=c1c2ccccc2c(C=Nc2cccc(S(=O)(=O)NC3=NCCCCC3)c2)c(O)n1Cc1ccccc1 | inconclusive: 31.6 µM [inhibitor, partial curve]
CCn1c(CN2CCN(CCO)CC2)nc2ccccc21 | inconclusive: 39.8 µM [inhibitor, single point]
COc1cc(C(=O)N2C(=O)c3cccc(N)c3C2=O)cc(OC)c1OC | inconclusive: 31.6 µM [inhibitor, partial curve]
COc1ccc(-c2ccc(C#N)c(SCC(=O)NCCc3ccccc3)n2)cc1OC | inconclusive: 14.1 µM [inhibitor, partial curve]
Brc1ccccc1-c1nnc2sc(-c3ccc4c(c3)OCCO4)nn12 | inconclusive: 31.6 µM [inhibitor, single point]
CS(=O)(=O)Nc1cccc(-c2nc(Nc3ccc(F)cc3)c3ccccc3n2)c1 | inconclusive: 25.1 µM [inhibitor, single point]
CC(C)(NC(=O)c1cc(Cl)c2ccccc2c1O)C(=O)O | inconclusive: 22.4 µM [inhibitor, partial curve]
CCOc1ccccc1-c1nc(-c2ccc(NC(=O)Cc3ccccc3OC)cc2)no1 | inconclusive: 25.1 µM [inhibitor, partial curve]
O=C1NC(=O)C2(COC(c3ccccc3Cl)OC2)S1 (stereo unspecified) | inactive
CCc1ccc(N2C(=O)Nc3ccccc3C2(O)C(=O)N2CCN(c3ccccn3)CC2)cc1 (stereo unspecified) | inconclusive: 22.4 µM [inhibitor, partial curve]
CN(C)CCNC(=O)c1ccc2c(c1)N(Cc1ccc(F)cc1)CCS2 | inconclusive: 31.6 µM [inhibitor, partial curve]
CCCn1nc([N+](=O)[O-])c(C(C#N)c2nc3ccccc3s2)c(Cl)c1=O (stereo unspecified) | inactive
CC1(C)CC(=O)c2sc(NC(=O)CN3CCOCC3)nc2C1 | inactive
